No constants are given. Whether binding was seen depends on the method and setting. For some assays here: Binding seen in cells or lysates may run through a third protein. Some results given as binding are weak or reduced against the parent protein; the word gives no strength. For some assays here: Tags and fused reporters may be left off the sequences shown.

The chains behind the UniProt entries cited, without tags or fusion partners. Where a name states a change or a piece, a line headed by the entry shows the natural chain unless it says otherwise. Residues count along the entry.
UniProt Q92466: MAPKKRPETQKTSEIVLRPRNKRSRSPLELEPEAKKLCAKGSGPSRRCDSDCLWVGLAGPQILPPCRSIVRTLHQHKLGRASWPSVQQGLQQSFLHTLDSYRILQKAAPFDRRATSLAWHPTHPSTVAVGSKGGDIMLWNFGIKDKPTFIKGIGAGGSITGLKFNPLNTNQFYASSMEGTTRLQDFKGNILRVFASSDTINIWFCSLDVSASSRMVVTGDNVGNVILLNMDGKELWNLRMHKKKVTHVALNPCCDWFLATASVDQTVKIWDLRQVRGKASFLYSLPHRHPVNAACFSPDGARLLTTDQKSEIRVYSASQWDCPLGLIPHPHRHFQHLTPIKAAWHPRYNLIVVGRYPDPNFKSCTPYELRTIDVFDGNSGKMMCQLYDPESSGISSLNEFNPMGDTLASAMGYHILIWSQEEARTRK
DDB2_(79–427)-FLAG: residues 79-427 of Q92466
UniProt Q16531: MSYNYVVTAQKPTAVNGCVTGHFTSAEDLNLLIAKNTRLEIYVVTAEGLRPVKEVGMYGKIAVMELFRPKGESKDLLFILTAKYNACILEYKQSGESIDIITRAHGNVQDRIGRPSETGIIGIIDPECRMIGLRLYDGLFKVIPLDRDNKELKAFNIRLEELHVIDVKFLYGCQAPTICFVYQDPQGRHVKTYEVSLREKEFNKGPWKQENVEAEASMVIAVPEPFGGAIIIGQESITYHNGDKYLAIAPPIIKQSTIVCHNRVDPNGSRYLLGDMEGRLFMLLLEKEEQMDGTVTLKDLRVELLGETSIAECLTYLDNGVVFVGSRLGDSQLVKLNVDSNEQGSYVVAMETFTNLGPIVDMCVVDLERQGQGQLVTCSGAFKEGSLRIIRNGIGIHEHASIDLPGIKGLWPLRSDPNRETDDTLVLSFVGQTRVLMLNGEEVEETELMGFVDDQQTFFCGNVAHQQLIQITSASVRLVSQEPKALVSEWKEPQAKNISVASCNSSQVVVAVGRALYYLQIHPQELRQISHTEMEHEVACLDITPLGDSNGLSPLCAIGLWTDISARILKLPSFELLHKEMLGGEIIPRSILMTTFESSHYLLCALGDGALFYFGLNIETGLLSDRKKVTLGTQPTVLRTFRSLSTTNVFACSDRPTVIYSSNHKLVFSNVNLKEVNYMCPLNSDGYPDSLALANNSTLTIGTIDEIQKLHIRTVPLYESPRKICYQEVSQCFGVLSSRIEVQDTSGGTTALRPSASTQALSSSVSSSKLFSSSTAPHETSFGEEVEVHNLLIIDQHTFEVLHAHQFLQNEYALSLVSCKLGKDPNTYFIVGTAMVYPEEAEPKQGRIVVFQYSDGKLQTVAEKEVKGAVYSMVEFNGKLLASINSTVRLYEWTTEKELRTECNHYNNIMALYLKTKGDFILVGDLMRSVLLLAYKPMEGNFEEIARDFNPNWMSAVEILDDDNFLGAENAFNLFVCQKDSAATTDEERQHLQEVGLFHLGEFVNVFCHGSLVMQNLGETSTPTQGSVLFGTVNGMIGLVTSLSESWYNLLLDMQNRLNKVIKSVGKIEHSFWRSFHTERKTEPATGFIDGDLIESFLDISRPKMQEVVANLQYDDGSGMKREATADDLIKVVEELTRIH

This is an account of results in paper PMC3201922.

Assay [1] addresses T1, GST-XPC_(428–633) (human) (UniProt Q01831).
T1 sequence: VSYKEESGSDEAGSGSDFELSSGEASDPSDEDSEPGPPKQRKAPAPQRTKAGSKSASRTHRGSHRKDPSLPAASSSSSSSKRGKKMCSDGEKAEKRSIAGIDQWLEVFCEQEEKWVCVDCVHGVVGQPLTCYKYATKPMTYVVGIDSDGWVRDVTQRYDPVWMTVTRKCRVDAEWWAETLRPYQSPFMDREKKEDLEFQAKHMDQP
The experiment in a line: pull-down; GST-XPC polypeptides (120 pmol) held on glutathione-Sepharose beads, incubated with UV-DDB (120 pmol) for 20 min at room temperature in 500 µl washing buffer (50 mM Tris-HCl pH 8.0, 1 mM EDTA, 1 mM dithiothreitol, 10% glycerol, 0.5% Nonidet P-40, 150 mM NaCl, bovine serum albumin); DDB2 detected with antibodies against His6; in some samples UV-DDB was pre-incubated with undamaged or damaged 15-mer DNA duplex; both purified.

In assay [2] the target is T2, GST-XPC_(607–766) (human) (UniProt Q01831).
T2 sequence: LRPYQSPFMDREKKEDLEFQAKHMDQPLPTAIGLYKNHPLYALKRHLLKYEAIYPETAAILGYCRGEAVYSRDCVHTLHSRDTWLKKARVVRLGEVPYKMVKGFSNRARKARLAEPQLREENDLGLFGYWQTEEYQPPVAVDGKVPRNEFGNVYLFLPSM
The assay is described as above.

In assay [3] the target is T3, GST-XPC_(679–832) (human) (UniProt Q01831).
T3 sequence: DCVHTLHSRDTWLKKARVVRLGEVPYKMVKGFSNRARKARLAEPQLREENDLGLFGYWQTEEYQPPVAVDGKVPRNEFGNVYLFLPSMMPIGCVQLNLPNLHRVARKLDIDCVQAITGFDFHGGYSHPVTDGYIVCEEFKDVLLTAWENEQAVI
The description is as above.

The target in assay [4] is T4, GST-XPC_(607–741) (human) (UniProt Q01831).
T4 sequence: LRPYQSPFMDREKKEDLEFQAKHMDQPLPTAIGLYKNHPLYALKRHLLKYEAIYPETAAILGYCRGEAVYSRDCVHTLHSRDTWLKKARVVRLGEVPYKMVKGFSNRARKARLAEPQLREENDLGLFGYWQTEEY
Described as above.

Assay [5] addresses DDB2_(1–427)-FLAG (human) (UniProt Q92466). The experiment in a line: co-IP; lysates of doubly transfected HEK293T cells probed with anti-FLAG affinity beads; immunoprecipitates analysed by Western blotting with anti-FLAG and anti-GFP antibodies.
Assay [6] deals with DDB2_(79–427)-FLAG (human) (UniProt Q92466). The assay is described as above.

Regarding “UV-DDB-His6 (from UniProt Q16531 1-1140; Q92466 1-427) (complex)”, the binding result in assay [1] was “binds”; in assay [2], “binds”; in assay [3] it was “no binding (tested: 120 pmol UV-DDB in 500 µl)”; in assay [4], “binds”.

In the case of XPC-GFP (from UniProt Q01831 1-940), the binding result in assay [5] and in assay [6] was “binds” throughout.

For the substance DDB1 (from UniProt Q16531 1-1140), the binding result in assay [5] is recorded as “binds”; in assay [6] it was “no binding”.
